Measurements reported in the supplement of paper PMC12632987.
The full ranking holds about 1,800 sequences; the median of “median log2 fold change of GCK-ALFA target abundance (FLAG IP / Myc IP barcode read proportion)” is about 0.14, and the lowest 2% start at about -0.84. The list shows a part of the results.

T1: TRAF2, Q12933
T1 chain: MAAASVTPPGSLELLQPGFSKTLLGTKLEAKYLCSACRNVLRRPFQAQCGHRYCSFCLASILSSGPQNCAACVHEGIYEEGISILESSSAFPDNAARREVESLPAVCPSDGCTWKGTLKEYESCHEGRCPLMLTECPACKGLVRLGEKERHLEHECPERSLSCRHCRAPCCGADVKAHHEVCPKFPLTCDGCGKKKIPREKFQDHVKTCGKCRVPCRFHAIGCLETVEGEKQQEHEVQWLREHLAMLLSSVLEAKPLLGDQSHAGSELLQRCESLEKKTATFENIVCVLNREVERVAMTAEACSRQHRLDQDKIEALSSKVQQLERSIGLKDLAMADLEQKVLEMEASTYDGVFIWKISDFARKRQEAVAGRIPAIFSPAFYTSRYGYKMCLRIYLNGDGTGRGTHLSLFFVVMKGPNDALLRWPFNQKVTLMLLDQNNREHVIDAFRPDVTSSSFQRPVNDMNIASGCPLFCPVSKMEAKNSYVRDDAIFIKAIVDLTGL

B1: traf2_out_19_177_1993 (protein)
chain: SALEADREINKYANERNDEFEAAADALLARRPSLTPEEFLAAAIAVLREHLVVNTRIAARILEAAPPEYRPELLAAYEESKERANEELSKKMKEIEAKYA
B2: traf2_out_16_171_1441 (protein)
chain: SMEEREEELKKEIEEEAKRLIERMETAVEMAPLISKETGLTMEQIAAGFRSTMTDRIEAFREHFLKKAEDLSEEVKEYIEEKVKEMEKALEKAVKEILAL
B3: traf2_out_20_38_2008 (protein)
chain: SMEEEEKKREEHLIEVANAAYDEAEAEVAALKAAGKTVDEIAAATKARVRELLTAAGLEEEAAELVEDVDIAAKSPDAERLLVRILARAVTLVEQKKLQE
B4: traf2_out_20_3_2094 (protein)
chain: EELLKKLEEELKEAEELLKEAIKLADEETAKKLKKLLAKLKAAKELPLDDQLVALSEVRRETLELAEKAREEGKEELAEILEEAAEEINRAMNLAYKILE
B5: traf2_out_15_48_1369 (protein)
chain: DAEAYRKAMNEAADAIIATKDAVAARVEALAATASPEVAAALDAVVALIRAGAGSQDVIAALNAAAATASPEVAAQLNALAADLKAARAAASKTAAEMAK
B6: traf2_out_13_95_1193 (protein)
chain: EEEKREKYKKLTNEIADELLDHADKLIDEITKATGDPALGAELRRVLDRYGVSAAIHYIREQAEKNPEYKELYLKAAEELEAKRREAGKKVAEKEKEIEA
B7: traf2_out_20_3_2242 (protein)
chain: SELEKQLKEEFEKLEKLIKELEPLLPKEDAEKIKKLLEEAKEAYKTDKSDALVKLSELKRLLLELAEKKRAAGDEETAKKLEEAADEVNRAMQLVYKIIQ
B8: traf2_out_1_27_987 (protein)
chain: SEEEFTALVKEASEKIAKASTEEAIKIAKETLREIHERGDPSIGLAAVTLVTSVKTKEDAEKLIEAIEETLRELGVSEEEIERIRRQMLTAVELLFKALA
B9: traf2_out_20_3_2187 (protein)
chain: SELEEELEKKLEEALKLIKEAAKLADPETAKELKELAKELKKSRELSYEDQLVKLSEIRRKLLELAEKAKAEGKEELAAKLEEAAEALNKAMNLVYKIIE
B10: traf2_out_18_117_1806 (protein)
chain: SEIEEARKEFEEALEEFEEELREAERVAGQLIERHPHALPEEATEAIVRFGELKRRARLLALEAEENRNNLEKLKEIVEELRRLTEEMREVRERLKELLA
B11: traf2_out_11_155_728 (protein)
chain: EAKRKAQNEIVDKNLEIGDELLAVVEAIIARVAARDPAVAAELRAVVARHLRFSHRSAARAAIDLLERRGLAEEAAELAAALEEAQRKASRFIKEVEEKL
B12: traf2_out_11_155_757 (protein)
chain: SKLREMANKINDIAMKIADEIDKKIEEMIKRIEKEDPAAAKKLRAALAAHKDASARSKALIAAQVLKEEGFEEEAEELLKFLEEKQKKLNEEVKKIEEEA
B13: traf2_out_5_63_2362 (protein)
chain: SERERLTELAREADRLVQELLAAAKAGDEEEVEALIEEAVADPELARLVLGILKGEAKYYKLLGDKPEEAAIAEELAKRLEAAMAAREAAAAAAAAAAAA
B14: traf2_out_17_178_1726 (protein)
chain: SKEEILKKISELADERLDVNKEAMEKLRAIAEKEGVLTPELKARLDAVSKNSNLYALEEVANELIARSSSKEEIQKLLDETSKKLRELNKKIQEAVEKLE
B15: traf2_out_9_166_2602 (protein)
chain: NTDKYYEVLKKHSRKIGEHAQAALRELERVGAPEELLAEVSEALNRLLTHMLYSDEVLEELERLAKRLAERPELREVARHLEEALEEAKKAREEVKKLNE
B16: traf2_out_20_3_2254 (protein)
chain: EELLRKAREELERARRLLEELEPHLDPETAAALREALEAAERALETDYSDALVEASRARRLALAAAEEARAAGREEVAARLEALADEMQRAKYYLYKIIE
B17: traf2_out_9_108_2595 (protein)
chain: MTEEEKEEETYEKILKLAKDFLERYDVSEELRADMEAAIEQAEKLRKEGEKRTANILIAISTARVAYEIGEEAVKDFLAELKKIDERSYNAAKRMVKLLK
B18: traf2_out_3_89_2281 (protein)
chain: EEERKKKIEEARKNIKTWIKGLEKSTKRVAEEMLKEGYSLETIKGLIDSSATALLEAFRISLKDEGFDEETIEELVKEAEEELKKIVAKLKEEAEKAYKE
B19: traf2_out_17_178_1703 (protein)
chain: SKEEARKEISEATDEMIDLAREAAARLLEIARREGDLSPEELAALERARRLGSARTTLALMDRAIPRLRSAAEVAALRDDFRARYAELAKKIAEALEKYE
B20: traf2_out_17_162_1496 (protein)
chain: AAAEARFAELQARLEELEKRLKELKAKLPNLPKMSKEELTDLLVEASELKREARELAEELRELAEETGSPEAEAALERAEALAEELQKIANEIYKELEAK
B21: traf2_out_6_156_2374 (protein)
chain: TAEEILREAEKEIKELIKELAKASEEKKIAYISRIAGAVYRALQRLREAGASVEELREAVERLREVAKKEAEKAGLPEDVKNLLLASINAVGEVALREAE
B22: traf2_out_8_144_2538 (protein)
chain: HMTKRELANELANILVELDELIELADEETKKVLIEARRHVGQALNLVVFGGPKEEILKEIEKAIEKLKEAIKLVKDNPELKKKLEEALEKLKEILKNVKE
B23: traf2_out_6_3_2530 (protein)
chain: SKESLRRDARTLLENMGITTAEQLLAFVRAEVNAVRKLVSRKDVDQADLAGARAVATLIEAVVEVAAEELPDFTPEQVAEALALIEEARKFIEEKEKELK
B24: traf2_out_16_177_1450 (protein)
chain: EREKISDRLVILSELRRAALLAVAGSGEEYREHLERAREEAEEAGDEEALERAEEIEALIAADTPEARAELEALARELQREAGKLANEFEKLIKEEAEKE
B25: traf2_out_6_156_2389 (protein)
chain: KLEEILKKTKEELEKLIEELSKASEEKKIFYFNKIAGVVYRALQQMRDAGASLEELKAFSEEVLEHAKKEADKYGLSEDTKNLLISSLNAVFDVALEAAK
B26: traf2_out_20_3_2196 (protein)
chain: SELEKQLKEELEKAIELLKEAAKLADEETAKKLEELIKRIKASESLSYSDRLVVLSEVRREVLKLAEEARAAGKEELAKVLEEAAEALNRAMNLLMKIIE
B27: traf2_out_6_156_2443 (protein)
chain: MLEEIKEKTEKEIKEEVKKLAESSPEKHIIHINKIAGAVYRGLLEARKAGASLEEIKEFVEELKKVLEEEANKYGLDESTKNLLLSSFNAVAQVALEEAK
B28: traf2_out_13_95_1125 (protein)
chain: SKELAEKIMEIADEMEEKVLKILEELLKIAKKKGIAEKEVQAILDFAKHGTINEVIHRLKELAEKYPELKEEFEAAIEKLEEIRREAGKKVAELIKEEEE
B29: traf2_out_17_162_1608 (protein)
chain: MELEEKLKKLKELLEELEKKLKRLEEKLKNIEKLSKEELSDLLVEASEARRKALEALEEIKKLKEKLDKEEYEKLSKRFEEIAEKFQRIANKFYKELEKK

Target: T1, TRAF2, Q12933
Assay: median log2 fold change of GCK-ALFA target abundance (FLAG IP / Myc IP barcode read proportion) (log2 ratio); each designed protein is fused to an ALFA-tag nanobody in HEK293 cells to bring the named protein to FLAG-tagged glucokinase (GCK); Myc marks an untargeted standard; higher = target protein stabilised (more abundant)
Details: target protein: 3xFLAG-MCP-GCK-ALFA reporter; HEK293 landing pad (RPLP)
In short: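 HEK293 landing-pad cells received a recombined binder library fused to the ALFA nanobody and were induced with 2 μg mL^−1 doxycycline, then transfected with a plasmid encoding a FLAG-tagged target and a Myc-tagged standard. Lysates were collected after 48 h for anti-FLAG and anti-Myc immunoprecipitation, and the circular RNA barcodes were reverse transcribed, amplified and sequenced. Target abundance for each binder is the median log2 ratio of FLAG to Myc barcode read proportions. Barcodes had to reach a proportion of at least 10^−7 in both replicates, each binder needed at least 3 barcodes per replicate, a pseudocount of 10^−6 was applied, and the two replicates were pooled.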

| Binder | median log2 fold change |
| --- | --- |
| B1 | 0.176 |
| B2 | 0.00959 |
| B3 | 0.328 |
| B4 | -0.11 |
| B5 | 0.341 |
| B6 | 0.187 |
| B7 | 0.299 |
| B8 | 0.203 |
| B9 | 0.101 |
| B10 | 0.144 |
| B11 | 0.215 |
| B12 | -0.0345 |
| B13 | -0.402 |
| B14 | 0.0326 |
| B15 | 0.0726 |
| B16 | 0.298 |
| B17 | -0.632 |
| B18 | -0.253 |
| B19 | -0.228 |
| B20 | 0.252 |
| B21 | -0.0257 |
| B22 | 0.112 |
| B23 | -0.811 |
| B24 | 0.121 |
| B25 | 0.203 |
| B26 | -0.0875 |
| B27 | 0.214 |
| B28 | -0.644 |
| B29 | -0.073 |
